Source: publication PMC6919601, “Identification of Plasmodium dipeptidyl aminopeptidase allosteric inhibitors by high throughput screening” (PLoS ONE, 2019)
About 230 (0.21%) of roughly 110,000 compounds showed an effect of 50% or more. Some of the results follow.

These molecules were tested against DPAP1 (Plasmodium falciparum, UniProt Q8IIJ9) (assay: primary screen, percent inhibition; read by cleavage of a fluorogenic dipeptide substrate; higher = more effect of the substance).
Parameters: species or system P. falciparum D10 trophozoite lysates; single well
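Note: 30 min substrate incubation versus DMSO and 10 µM JCP410 controls.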

DPAP1, sequence (Q8IIJ9 whole entry, looked up): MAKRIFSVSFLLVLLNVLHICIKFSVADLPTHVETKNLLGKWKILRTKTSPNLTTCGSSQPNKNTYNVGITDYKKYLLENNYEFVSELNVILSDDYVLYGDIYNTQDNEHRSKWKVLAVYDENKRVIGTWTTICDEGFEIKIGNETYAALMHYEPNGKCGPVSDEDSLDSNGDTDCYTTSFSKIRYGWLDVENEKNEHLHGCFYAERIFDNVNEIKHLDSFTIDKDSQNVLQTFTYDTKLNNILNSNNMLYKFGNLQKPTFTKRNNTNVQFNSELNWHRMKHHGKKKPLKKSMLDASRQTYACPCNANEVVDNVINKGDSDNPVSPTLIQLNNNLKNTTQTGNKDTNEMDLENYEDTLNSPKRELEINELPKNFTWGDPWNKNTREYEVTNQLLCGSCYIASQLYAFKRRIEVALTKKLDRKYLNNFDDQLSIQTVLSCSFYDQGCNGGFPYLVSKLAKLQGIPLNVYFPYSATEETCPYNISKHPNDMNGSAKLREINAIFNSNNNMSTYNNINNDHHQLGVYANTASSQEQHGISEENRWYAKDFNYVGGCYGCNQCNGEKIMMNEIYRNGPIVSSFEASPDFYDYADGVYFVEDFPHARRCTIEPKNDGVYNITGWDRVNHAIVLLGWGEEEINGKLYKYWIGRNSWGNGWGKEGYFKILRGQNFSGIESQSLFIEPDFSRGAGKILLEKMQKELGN

| Compound | % Inhibition @ 10 uM [%] |
| --- | --- |
| CC(C)CC(C(=O)NCCc1ccc(Cl)cc1)N1Cc2ccccc2C1=O (stereo not drawn) | -1.31 |
| Cc1ccccc1S(=O)(=O)Cc1ccc(C(=O)NCCN(C)Cc2ccccc2)o1 | 0.244 |
| O=C(Cn1cc2c(n1)CCCCC2)NCc1ccccn1 | 1.8 |
| CSc1nc(N)c(C#N)c(-c2ccccc2)c1C#N | 2.65 |
| Cc1ccc(S(=O)(=O)N2CCN(C(=O)CSc3nnc(N)s3)C2)cc1 | -7.33 |
| CCOC(=O)C1=CN(Cc2ccc(F)cc2)C=C(C(=O)OCC)C1c1ccc(C(F)(F)F)cc1 | 4.99 |
| CC(C)C[C@H](NC(=O)c1cc(Cl)nc(Cl)c1)C(=O)NCC#N | 2.87 |
| O=S(=O)(/N=C/c1ccccc1)c1cccs1 | 1.67 |
| CCOc1cc(/C=C2/C(=N)N3OC(C)=CC3=NC2=O)ccc1OCCOc1ccccc1C | -1.43 |
| Cc1c2cnn(CC(=O)N3CCN(c4ccccn4)CC3)c(=O)c2c(C)n1Cc1ccccc1 | 1.22 |
| CC(NC(=O)C1CCN(S(=O)(=O)c2ccccc2)CC1)c1ccccc1 (stereo not drawn) | -7.56 |
| CCC1(Cc2ccccc2)NC(=O)c2ccccc2O1 (stereo not drawn) | -5.94 |
| CCOC(=O)N1CCN(CCC(=O)Nc2cccc(Br)c2)CC1 | 2.92 |
| OCCNCc1ccc(OCc2ccc(Cl)cc2Cl)cc1 | -6.02 |
| O=C(CN1C(=O)c2ccccc2S1(=O)=O)Nc1ccc(F)cc1 | -6.36 |
| CC(C)Oc1ccc(CNC(=O)c2ccc3nc(N4CCCCC4)sc3c2)cc1 | 1.72 |
| CCOc1ccccc1CN1CCC(N2CCCCC2)CC1 | 4.55 |
| O=C(Nc1ccccc1C(=O)Nc1ccccc1)c1cccs1 | 4.05 |
| Cc1cccc(Oc2cc(-n3ncc(C#N)c3N)ncn2)c1 | -9.39 |
| O=C(CSCC(=O)Nc1ccccc1F)Nc1ccc(Cl)cc1 | -5.81 |
| Cc1ccc(-c2nc3sccn3c2C=O)cc1 | -4.35 |
| CCOC(=O)C1=C(CS(=O)(=O)c2ccc(C)cc2)NC(=O)NC1c1ccc(OCC)c(OC)c1 (stereo not drawn) | -4.17 |
| O=C(c1ccc(CS(=O)Cc2cccc(Cl)c2)o1)N1CCN(Cc2ccccc2)CC1 (stereo not drawn) | 0.401 |
| Cc1cccc(-[n+]2c(=O)c(Cc3ccccc3)c(O)n3nc(C)ccc32)c1 | -0.496 |
| COc1ccc(-c2nc3ccc4ccccc4c3c3c2CCC3)cc1 | -1.97 |
| CCOC(=O)C1CCCN(Cc2cccc(Cl)c2Cl)C1 (stereo not drawn) | 1.48 |

| Compound | % Inhibition @ 10 uM [%] |
| --- | --- |
| CCc1cc(CC)c(CO)c(CC)c1CO | 3.42 |
| N#Cc1ccc(CN2CCc3ccccc3C2)cc1 | -0.0709 |
| O=C(O)CCC(=O)N(Cc1ccccc1)Cc1cn(-c2ccccc2)nc1-c1ccc2c(c1)OCCO2 | -5.41 |
| CCc1c(C)sc(NC(=O)C2CCCO2)c1C#N (stereo not drawn) | 0.674 |
| O=C(O)CNc1ncnc2[nH]cnc12 | -1.06 |
| CCN1C(=O)C(CC(=O)Nc2ccccc2Br)S/C1=N\c1cccc(OC)c1 (stereo not drawn) | 4.67 |
| CCOc1ccc(-n2c(C)cc(/C=C3/C(=N)N4C(=NC3=O)SN=C4S(=O)(=O)CC)c2C)cc1 | -1.58 |
| CCNc1nc(OC)nc(N2CCC(Cc3ccccc3)CC2)n1 | -10.8 |
| CC(C)CC(NC(=O)c1ccc(NC(=O)Nc2ccccn2)cc1)C(=O)NCC#N (stereo not drawn) | -5.64 |
| c1ccn(-c2ncnc3sc4c(c23)CCCC4)c1 | 1.08 |
| COC(=O)C1=C(C)NC(=O)NC1c1cccc(Cl)c1 (stereo not drawn) | -3.14 |
| CCOC(=O)c1c(NC(=O)CSc2nc(CC)c(C)cc2C#N)sc2c1CCC2 | 1.97 |
| Cc1oc(-c2ccc(Cl)cc2)nc1CS(=O)CC(=O)NCCCN1CCOCC1 (stereo not drawn) | 0.689 |
| Cc1cc(Oc2nnnn2-c2ccccc2)ccc1Cl | -0.834 |
| N#CC(NC(=O)[C@H](CC1CCCCC1)NC(=O)c1ccccc1)c1cccs1 (stereo partly drawn) | -5.21 |
| Cc1ccc(C2CC(=O)n3c(nc4ccccc43)N2)cc1 (stereo not drawn) | 0.0289 |
| CCCOc1ccc(Cn2c(CO)nc3ccccc32)cc1 | -0.0626 |
| O=C(CCN1CCOCC1)c1ccccc1 | -2.55 |
| COc1cc(CNCc2ccc(C)cc2)cc(OC)c1 | 2.76 |
| O=C(NCCCc1ccccc1)c1ccc(CS(=O)Cc2ccc(Cl)cc2)o1 (stereo not drawn) | -5.12 |
| Oc1ccc(Cl)cc1-c1nc(O)c2c3c(sc2n1)CCCC3 | 3.06 |
| CCn1cc(C2=NOC(C(=O)N3CCC(C(N)=O)CC3)C2)c(C)n1 (stereo not drawn) | -4.85 |
| Cc1ccc(C2c3c(-c4cc(C)ccc4O)n[nH]c3C(=O)N2Cc2cccnc2)cc1 (stereo not drawn) | -2.92 |
| COC(=O)c1c(NC(=O)c2ccccc2)sc2c1CCC2 | 0.997 |
| COCCNC(=O)CCN1N=C(c2ccccc2)CCC1=O | 2.35 |
| CC(=O)C(=CNc1ccc2c(c1)ncn2-c1ccc(C)cc1)C(C)=O | -3.9 |

| Compound | % Inhibition @ 10 uM [%] |
| --- | --- |
| O=C(CNC(=O)c1cccs1)NCCN1CCN(Cc2ccccc2)CC1 | 2.05 |
| Cc1cc(C)c2oc(C(=O)NC3CCS(=O)(=O)C3)cc(=O)c2c1 (stereo not drawn) | 3.51 |
| COc1cccc(CN2CCN(Cc3c[nH]c4ccccc34)CC2)c1OC | -3.49 |
| O=C(c1nn2c(C(F)(F)F)cc(-c3cccs3)nc2c1Cl)N1CCOCC1 | -6.88 |
| O=C(Cn1c(=O)c2ccccc2n2nncc12)NCCc1ccccc1 | -3.13 |
| CCOC(=O)c1c(C)[nH]c(C)c1S(=O)(=O)NCc1ccccc1OCC | 4.71 |
| OC(CN1CC=C(/C=C/c2ccc(Br)cc2)CC1)c1ccccc1 (stereo not drawn) | 2.6 |
| C=Cc1ccc(Cn2c(C)c(CNCc3ccc(OC(C)C)cc3)c(C(=O)O)c2C)cc1 | -3.67 |
| COc1ccc(C2=C/C(=C/c3cccc(Br)c3)C(=O)O2)c(OC)c1 | 3.16 |
| COc1ccc(OCC(=O)NCCCN2CCOCC2)cc1 | 2.1 |
| CC(=O)c1ccccc1OCCCN1CCCCC1 | 4.88 |
| COc1ccc(C2SCCN2S(=O)(=O)c2ccc(NC(C)=O)cc2)cc1OC (stereo not drawn) | -2.03 |
| CN1CCN(Cc2ccc3c(c2)OCO3)CC1 | -7.49 |
| CCOC(=O)N1CCC(NC(=O)c2ccc3c(c2)sc2nc(-c4ccccc4)cn23)CC1 | 0.0882 |
| CS(=O)(=O)N1CCC(C(=O)N2CCc3ccccc3C2)CC1 | -3.92 |
| CCOC(=O)c1nnn(-c2nonc2N)c1COc1cc(C)c(Cl)c(C)c1 | -0.0735 |
| CC(=O)N1CC=C2C(C#N)=C(N)C(C#N)(C#N)C(c3ccccc3C(F)(F)F)C2C1 (stereo not drawn) | -1.93 |
| CCCCCC(=O)Nc1ncc2c(n1)CC(c1ccc(C)cc1)CC2=O (stereo not drawn) | 4 |
| CCC(Sc1nc2nnc(C)c-2c(N)n1-c1ccc(OC)cc1)C(=O)NC1CCCCC1 (stereo not drawn) | 2.9 |
| Cc1cccc(OCCCN2CCCCC2)c1 | 1.08 |
| CC1=C(C(=O)Nc2ccc(Br)cc2)C(c2ccccc2)NC(=O)N1C (stereo not drawn) | 3.18 |
| O=C1N2CN(Cc3ccccc3)CN3C(=O)N4CN(Cc5ccccc5)CN1C4C23 (stereo not drawn) | -0.703 |
| COc1ccc(CN2CCN(S(=O)(=O)c3ccc(-c4ccc(O)nn4)o3)CC2)c(OC)c1OC | -4.99 |
| Cc1cc(C)n(C(=O)COc2ccc(C)c(C)c2)n1 | -8.79 |
| Oc1nc2ccc(C(F)(F)F)cc2n2cnnc12 | 1.49 |
| O=C(ONc1ncnc2nonc12)c1ccccc1 | -6.17 |

| Compound | % Inhibition @ 10 uM [%] |
| --- | --- |
| COc1cc2c(cc1OC)C(C(=O)Nc1ccccn1)C(c1cccnc1)N(C)C2=O (stereo not drawn) | -3.79 |
| Cc1ccccc1OCCCC(=O)Nc1ccc(N2CCOCC2)cc1 | 2.13 |
| CCOC(=O)c1cc(CC)sc1NC(=O)COc1ccc(Cl)cc1Cl | -0.48 |
| CC(=O)N(Cc1ccccc1)c1c(N)nc(N)nc1O | 2.06 |
| CCOC(=O)N1CCN(C(=O)c2cnn(-c3ccccc3)c2-n2cccc2)CC1 | 6.46 |
| CCOc1ccc2nc(NC(=O)CCNS(=O)(=O)c3cccc4nonc34)sc2c1 | 2.84 |
| CCCNC(=O)c1cccc(COCC(F)(F)C(F)F)c1 | -1.02 |
| Cc1nc2c(c(C)nn2C)c(C)c1CCC(=O)NCCc1ccc(Cl)cc1 | -4.24 |
| CC(C)C[C@H](NC(=O)c1ccc(N2CCN(C)CC2)cc1)C(=O)NCCN1CCOCC1 | 3.19 |
| COc1ccc(NC(C)=O)c2nc(C)c(C)nc12 | 1.13 |
| Cc1ccccc1-c1cc(C(=O)NC(C)C)c2ccccc2n1 | 0.408 |
| O=S(=O)(Nc1cccc(C(F)(F)F)c1)c1cc(Cl)ccc1Cl | -2.6 |
| CCOC(=O)c1c(C)[nH]c(C)c1S(=O)(=O)NCC(=O)N1CCCCCC1 | -7.86 |
| CC1CCCCN1CCNC(=O)c1cc(-c2ccncc2)nc2ccccc12 (stereo not drawn) | -4.29 |
| O=C(Nc1cc([N+](=O)[O-])ccc1F)c1ccccc1 | -1.75 |
| CN(C)c1ccc(C(C2=C(O)N3CCSC3NC2=O)C2=C(O)N3CCSC3NC2=O)cc1 (stereo not drawn) | 5.04 |
| OC1(c2ccccc2)CC2CCC(C1)N2c1ncccn1 (stereo not drawn) | 1.85 |
| O=C(O)CCC(=O)Nc1ccc(S(=O)(=O)N2CCCCC2)cc1 | -1.49 |
| Cn1c(/C=C/c2ccc(Cl)cc2)nc2ccccc21 | -9.13 |
| COc1ccc(C2C(C#N)=C(N)Oc3cc(N)ccc32)cc1Br (stereo not drawn) | 4.57 |
| COc1cccc(OC)c1C(=O)Nc1ccccc1F | -3.44 |
| CCN(CCN(C)C)C(C)CCc1ccccc1 (stereo not drawn) | 3.68 |
| COc1cc(-c2cc(=O)oc(-c3ccc(Cl)cc3Cl)n2)cc(OC)c1OC | 0.484 |
| N#C/C(=C\c1ccc(-c2cccc([N+](=O)[O-])c2)o1)C(=O)Nc1ccc(Cl)cc1 | -5.11 |
